# The other results are listed elsewhere or left out. Values were computed here from the reads of four pooled replicates and scatter widely.
# Target: T1, Pho4 (S. cerevisiae) (UniProt P07270)
# T1 sequence: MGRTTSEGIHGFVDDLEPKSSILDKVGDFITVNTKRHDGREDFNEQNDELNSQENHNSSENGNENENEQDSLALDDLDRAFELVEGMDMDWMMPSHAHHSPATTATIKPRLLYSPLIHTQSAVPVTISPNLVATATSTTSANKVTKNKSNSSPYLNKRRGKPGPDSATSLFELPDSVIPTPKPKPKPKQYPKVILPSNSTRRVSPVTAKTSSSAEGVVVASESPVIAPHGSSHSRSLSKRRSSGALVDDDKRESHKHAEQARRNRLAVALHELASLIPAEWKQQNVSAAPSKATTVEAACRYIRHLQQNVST
# Assay: relative binding free energy (BET-seq); higher = weaker binding
# Details: reference: library average
row,Sequence,relative binding free energy [kcal/mol]
1,TATTTCACGTGGGTTC,0.24
2,GCTTTCACGTGTGTGC,0.32
3,TGCATCACGTGTGCGG,0.01
4,GGGCACACGTGTATTG,0.07
5,CTGGACACGTGGGGTT,-0.1
6,ATTTGCACGTGGTATA,-0.08
7,CTAAGCACGTGTGTCG,-0.01
8,AAGTTCACGTGGAGTA,0.29
9,GCAGGCACGTGGTTTT,-0.14
10,AAATGCACGTGAAGTG,0.28
11,TTGTTCACGTGAGTAG,0.44
12,ATTAACACGTGGTTGT,-0.18
13,TGTCGCACGTGTGCTG,-0.06
14,GTAGTCACGTGAGGAG,0.27
15,TCGGTCACGTGGAAAT,0.36
16,TGAAACACGTGAGTGA,0.31
17,TGAAGCACGTGTGCGT,-0.14
18,GTTGTCACGTGGTATT,0.12
19,TGTTTCACGTGCTAAT,0.11
20,ATGGCCACGTGTTTGT,-0.09
21,TGTAGCACGTGTGTGG,-0.07
22,ATAGGCACGTGCGGTG,-0.16
23,GGCGTCACGTGTGCGT,-0.03
24,TGTAACACGTGGGGTC,-0.13
25,ATTGGCACGTGAGTAC,0.14
26,TTTTTCACGTGTATGG,0.35

row,Sequence,relative binding free energy [kcal/mol]
1,ATTAACACGTGCTGGG,0.16
2,GTAATCACGTGACGGG,0.25
3,TTTGCCACGTGGATTA,0.09
4,TGAATCACGTGGTGGA,0.15
5,GTTAACACGTGTGGCA,-0.06
6,ACTTTCACGTGAGTTT,0.31
7,GGTGTCACGTGGGTTG,0.02
8,GTCCGCACGTGTGAGG,-0.04
9,TTTCACACGTGGATTG,-0.05
10,GTGTTCACGTGGGACA,0.03
11,TATCACACGTGGTTTG,-0.14
12,AGAAACACGTGGGTGT,-0.12
13,ATGGCCACGTGGTTAT,0
14,GGTTGCACGTGGTGTG,0.01
15,GGCATCACGTGATGGT,0.29
16,ATGTACACGTGATGAG,0.13
17,TGATTCACGTGTAGAT,0.24
18,TAGGTCACGTGCTTTA,0.01
19,ATGTCCACGTGGGGAT,0.02
20,TATCTCACGTGATGAT,0.3
21,ATGCACACGTGATGGG,0.03
22,AGGGACACGTGGGCTG,-0.13
23,CTCGGCACGTGTGTTT,-0.12
24,AGTTTCACGTGCGGTA,0.2
25,CACAGCACGTGGGTGG,-0.14
26,ATCGGCACGTGTAGTA,-0.11

row,Sequence,relative binding free energy [kcal/mol]
1,CAATGCACGTGGGGGA,-0.14
2,TCGTGCACGTGTTAAT,-0.02
3,ATTGGCACGTGGGCCA,-0.15
4,GGGTGCACGTGTGAAA,0.12
5,AGTGCCACGTGGTTGT,-0.2
6,AAGGGCACGTGCGGGA,-0.22
7,GTGTGCACGTGAGTCT,0.14
8,CTCGTCACGTGTGGAT,0.18
9,GGTTCCACGTGATATT,0.24
10,AGTCGCACGTGGGTGC,-0.28
11,CTGGTCACGTGTTGTG,0.07
12,TGGCTCACGTGGCTTT,0.19
13,AGGGTCACGTGATTGC,0.26
14,TGTGGCACGTGTTTAA,-0.01
15,ACGATCACGTGTTGGT,0.16
16,ATTATCACGTGGCGTG,0.01
17,TGAGACACGTGTTATG,0.04
18,GGTGCCACGTGGTGAG,-0.09
19,GGTCACACGTGAAGGG,0.33
20,GGAAGCACGTGGTTGC,0.08
21,TTGGTCACGTGAAGTC,0.28
22,TGCGGCACGTGCGTTG,-0.13
23,GCGGGCACGTGAGGCT,0.07
24,GCGGTCACGTGGCTTG,0.03
25,GAGGTCACGTGATCGG,0.26
26,GTATACACGTGTTGGG,0.04

row,Sequence,relative binding free energy [kcal/mol]
1,AAAGGCACGTGATACG,0.04
2,ATCGGCACGTGTGTTT,0
3,GGGGACACGTGCCGGC,0.06
4,ACAAGCACGTGATGGT,0.08
5,GGTCACACGTGTGTCG,0.18
6,ATAGTCACGTGTAATT,0.07
7,TCAATCACGTGGGGTT,-0.01
8,GGGCGCACGTGGCAGT,-0.12
9,GTGAACACGTGTGTGG,-0.08
10,GGGGACACGTGTGGGG,0.14
11,AGTTTCACGTGACGCG,0.38
12,GAGTTCACGTGAGGGG,0.43
13,TGGGGCACGTGTCGTC,-0.18
14,TTTGACACGTGGTTGT,0.12
15,TTGGCCACGTGAAGTG,0.23
16,GTTAGCACGTGTTTGG,-0.06
17,TTTGGCACGTGTTTAG,0.02
18,CTTAACACGTGGGGAG,-0.16
19,TATTACACGTGTAATG,0.1
20,ATTATCACGTGGAAAT,0.28
21,CGTTTCACGTGTGTGG,0.27
22,TTTGTCACGTGAGTAA,0.24
23,TTAAGCACGTGATCAG,0.01
24,TGGAACACGTGAGGGG,0.31
25,TGACACACGTGGTAGG,-0.04
26,TGGGGCACGTGCTCGT,-0.2

row,Sequence,relative binding free energy [kcal/mol]
1,TAGTGCACGTGGAATT,0.15
2,GGCTACACGTGGGGGC,0.03
3,TTGGGCACGTGCTCGG,-0.24
4,TGTAACACGTGTGCGA,0.07
5,GGGCCCACGTGGGTAT,-0.03
6,AGATACACGTGAAGGG,0.22
7,TAGGTCACGTGTAATA,0.22
8,ATTAACACGTGAGAGT,0.28
9,TGCGTCACGTGGAGTT,0.24
10,GTGGGCACGTGGTCTA,-0.18
11,ATATGCACGTGCGGGA,-0.07
12,TGATACACGTGTATGA,0.02
13,CTGTTCACGTGACTTG,0.38
14,TGCGTCACGTGAGGAT,0.16
15,GGTCACACGTGTGGTA,0.07
16,TGGGTCACGTGGACGA,0.17
17,CGTTGCACGTGCGTGA,-0.14
18,GGGTCCACGTGAAGTT,0.39
19,GTAGGCACGTGCTTTG,-0.1
20,ACGTTCACGTGGATGT,0.22
21,AGTAGCACGTGATTGG,0.18
22,GGCATCACGTGAAAGG,0.53
23,TAAGTCACGTGTTGTA,0.14
24,GATGGCACGTGTTATT,0.13
25,GTGTACACGTGTATAG,-0.11
26,CGGGGCACGTGCGAGG,-0.26

row,Sequence,relative binding free energy [kcal/mol]
1,CGCGCCACGTGTGGGG,-0.11
2,AGTTTCACGTGACTTT,0.15
3,TGATTCACGTGCGTGT,0.21
4,ACATACACGTGGGGTG,-0.21
5,TATAGCACGTGGTTGT,-0.07
6,GTTACCACGTGGGTGA,-0.09
7,TAGGGCACGTGTTTAA,-0.25
8,TTCTGCACGTGAGGGT,0.11
9,TAAATCACGTGAAGGC,0.55
10,TTGATCACGTGGTAGG,0.19
11,TGGGACACGTGACAGG,0.09
12,TCATGCACGTGCGGTA,0.03
13,CGGGACACGTGCTAGG,-0.03
14,GGGGCCACGTGTCTTT,0.09
15,TGGAACACGTGTCTGG,-0.01
16,TGGTACACGTGGGAAG,0.07
17,ATGAACACGTGACGGG,0.32
18,CGTGACACGTGCGGTT,-0.08
19,ACTGTCACGTGGAATT,0.29
20,GAGATCACGTGTGGGT,0.18
21,GTAGGCACGTGCGGTT,-0.01
22,GTGTTCACGTGGCTTA,0.25
23,AATGTCACGTGATAGT,0.23
24,ATCGGCACGTGTGATG,-0.05
25,CTGGTCACGTGGTATC,0.13
26,TTGCACACGTGAGGTG,0.22

row,Sequence,relative binding free energy [kcal/mol]
1,CATTTCACGTGCAGGG,0.27
2,AATGTCACGTGCGTTG,0.05
3,GTGGGCACGTGCCGGT,-0.1
4,GTCTTCACGTGGTGCG,0.15
5,ATTAGCACGTGTTCTT,0.01
6,ATAGTCACGTGAGGTG,0.1
7,TTGCACACGTGTTTAG,0
8,GAGTGCACGTGCTAGT,0.02
9,GGTGGCACGTGTAGCA,0.06
10,CGGGGCACGTGTGTAA,-0.11
11,TAGTGCACGTGTGTGA,-0.02
12,AGAATCACGTGAGTTT,0.47
13,CTATTCACGTGGTGCG,0.12
14,TGGCGCACGTGGAGGC,-0.22
15,GTGGGCACGTGAGTGT,0.21
16,AAGCGCACGTGGGGTT,-0.34
17,ATCCGCACGTGTTGTG,0.09
18,CGTGTCACGTGTTGAT,0.1
19,ACGTTCACGTGTTAGA,0.34
20,GTAATCACGTGGGGCA,-0.07
21,GTTCACACGTGTCGGG,0.08
22,GGAGGCACGTGTGAGG,-0.1
23,GTGTGCACGTGGCTGT,-0.09
24,TCATGCACGTGCGGTT,-0.13
25,GACGGCACGTGGTAGT,-0.03
26,AAAATCACGTGTGTTG,0.13

row,Sequence,relative binding free energy [kcal/mol]
1,TAGTGCACGTGTCGGG,0.01
2,GGGTACACGTGGGAAG,0.03
3,GGGTCCACGTGTGCGT,0.05
4,AGCAGCACGTGGAGGG,-0.14
5,GGTAACACGTGTAAAT,0.22
6,TCCGGCACGTGTGTGG,-0.09
7,ATGAGCACGTGGAGCG,-0.07
8,GTAAGCACGTGGTGAG,-0.12
9,GGTAACACGTGGTGGC,-0.02
10,GAGTGCACGTGCAGTA,0.1
11,TCTATCACGTGCTGGG,0.15
12,TATGACACGTGGGGTT,-0.1
13,GTACACACGTGGTGGA,0.08
14,AAGAACACGTGTGGAT,0.17
15,TGATTCACGTGATGAA,0.37
16,GACGTCACGTGGTGTG,0.09
17,TGGGTCACGTGATTCG,0.05
18,GCAGGCACGTGTGTGC,-0.08
19,GGCGGCACGTGGCAGG,-0.08
20,TACTGCACGTGAGGTG,0.32
21,CGTGGCACGTGAGGTT,0.19
22,TGTCACACGTGAAGTT,0.23
23,TGCGGCACGTGGATTT,0
24,GATGGCACGTGTGGGA,0.13
25,TTGGGCACGTGCTATG,-0.1
26,ATGGACACGTGATATA,0.21

row,Sequence,relative binding free energy [kcal/mol]
1,AAGTACACGTGAGGAG,0.19
2,AATAGCACGTGATGTG,-0.03
3,AGATACACGTGAAGTT,0.33
4,GTATTCACGTGATAGT,0.27
5,ACTGGCACGTGAGTTG,0.08
6,AGAATCACGTGATTTG,0.27
7,ACGGGCACGTGTTGTC,0.08
8,TATACCACGTGTTTGA,-0.07
9,TTCGGCACGTGATGCG,-0.01
10,TTTCACACGTGTGGTC,0.03
11,TGCTGCACGTGAAAGG,0.2
12,CAGGACACGTGGTTGG,0
13,GGGGACACGTGGTTAC,0.09
14,TTGAGCACGTGGGTGG,-0.19
15,TAAATCACGTGGGGTC,-0.04
16,TAAGGCACGTGATGCG,0
17,TAGGTCACGTGTCGGG,0.12
18,TTGCGCACGTGTGTGG,-0.15
19,GTATGCACGTGGTCTG,-0.06
20,ATTGTCACGTGGTTCT,-0.02
21,GTGAGCACGTGTTATA,-0.08
22,AATCGCACGTGTGTTG,-0.18
